According to PubChem BioAssay AID2147 (National Center for Advancing Translational Sciences (NCATS), 2009):
“And” between values parts separate entries of the source, which are not always exact repeats. Equal values may be shown once. The campaign covered roughly 230,000 compounds. About 3,600 (1.6%) were called active. The shares of active, inactive and inconclusive entries below differ from those in the screen. Calls come from the whole dose curve; as a rule, active = well fitted inhibition curve with a large enough effect (not every such curve was filed as active); inconclusive = small, poorly fitted or top-dose-only effect, or another doubt; inactive = no such curve, though single readings can be large or run the other way. A potency beside an inconclusive call is a rough fit, not a confirmed value.

biological target: Lysine-specific demethylase 4E (Homo sapiens) (UniProt B2RXH2); assay: qHTS Assay for Inhibitors of Human Jumonji Domain Containing 2E (JMJD2E); details: JMJD2E catalytic domain, FDH-coupled NADH fluorescence (FDH is formaldehyde dehydrogenase); series mostly up to 57.1 µM; activity change, negative = inhibition: at the top concentration
Note: nearly all actives have a fitted effect of over 50% in size.
Potency is the fitted concentration of half-maximal effect; tags give direction and shape of the fitted curve.
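Throughout, for activity change, negative = inhibition: 0% = wells with enzyme and -100% = buffer wells without enzyme.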

UniProt B2RXH2, sequence (B2RXH2 whole entry, looked up, the tested form may be a part): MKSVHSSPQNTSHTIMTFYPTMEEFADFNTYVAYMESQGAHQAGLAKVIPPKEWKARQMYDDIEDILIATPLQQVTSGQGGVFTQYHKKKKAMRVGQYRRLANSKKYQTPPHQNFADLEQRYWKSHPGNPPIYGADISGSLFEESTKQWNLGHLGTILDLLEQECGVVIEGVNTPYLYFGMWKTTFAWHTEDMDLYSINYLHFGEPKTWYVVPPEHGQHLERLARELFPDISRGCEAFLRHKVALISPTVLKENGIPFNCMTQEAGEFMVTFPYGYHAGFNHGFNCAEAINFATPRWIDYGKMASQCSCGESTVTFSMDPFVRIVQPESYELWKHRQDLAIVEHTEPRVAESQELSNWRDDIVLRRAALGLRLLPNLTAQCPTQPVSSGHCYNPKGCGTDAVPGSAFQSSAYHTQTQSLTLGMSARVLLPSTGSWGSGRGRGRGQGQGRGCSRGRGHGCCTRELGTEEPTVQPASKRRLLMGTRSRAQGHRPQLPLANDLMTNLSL

SMILES | activity change, negative = inhibition | Potency
O=C(NNC(=S)Nc1ccc(F)cc1)c1ccccc1OC(F)F | inactive: 10.1% | –
CCOC(=O)c1cccc(S(=O)(=O)N2CCOCC2)c1 | inactive: 6.21% | –
CCOC(=O)Cc1cc(=O)n2[nH]c(C)cc2n1 | – | inconclusive: 31.6 µM [inhibitor, single point]
CCOC(=O)CNc1nc(C(C)(C)C)nc2c1nnn2Cc1ccccc1Cl | inactive: 0.945% | –
O=C(c1cc(-c2cccs2)nc2ccccc12)N1CCN(S(=O)(=O)c2cccc(F)c2)CC1 | – | inconclusive: 22.4 µM [inhibitor, partial curve]
O=c1c2[nH]c3ccc(F)cc3c2ncn1CCN1CCOCC1 | – | inconclusive: 28.2 µM [inhibitor, single point]
c1ccc(-n2cccc2CNC2CCCCC2)cc1 | – | inconclusive: 35.5 µM [inhibitor, single point]
CCCCOc1ccc(CC(=O)NO)cc1 | – | inconclusive: 39.8 µM [inhibitor, single point]
CCOc1cc(-c2nc(C)c(C(C)=O)n2O)ccc1OCC(=O)Nc1ccccc1 | inactive: 0.403% | –
CN(Cc1ccccc1)C(=O)c1cccc(N2C(=O)NC3CC2(C)Oc2ccccc23)c1 (configuration not stated) | – | inconclusive: 25.1 µM [inhibitor, single point]
OC1CC(c2ccco2)NC2(CCCCC2)C1 (configuration not stated) | – | active: 22.4 µM
Oc1c(Cl)cc(Cl)cc1Sc1cc(Cl)cc(Cl)c1O | – | inconclusive: 31.6 µM [inhibitor, single point] and inconclusive: 39.8 µM [inhibitor, single point]
N#Cc1cc2c(nc1SCC(=O)N1CCCCC1)CCCCC2 | inactive: -24.2% | –
CC(C)Cc1nnc(NC(=O)CSc2nc(-c3ccccc3)cc(=O)[nH]2)s1 | – | inconclusive: 35.5 µM [inhibitor, single point]
COCCn1nnnc1C(CC(C)C)N1CCN(C(=O)c2ccco2)CC1 (configuration not stated) | inactive: 3.76% | –
O=C1[C@H]2[C@@H](C(=O)N1c1cccc3ccccc13)C1(C(=O)c3ccccc3C1=O)N1CCC[C@@H]21 | – | inconclusive: 39.8 µM [inhibitor, single point]
O=[N+]([O-])/C(C(Cl)=C(Cl)Cl)=C(/Sc1ccccc1)N1CCCCC1 | – | inconclusive: 5.62 µM [inhibitor, full curve]
C=CCc1ccccc1OCC(O)CNC(C)C (configuration not stated) | – | inconclusive: 14.1 µM [inhibitor, partial curve, poor fit]
CN=c1scc(-c2cccs2)n1/N=C/c1ccc(O)c(O)c1O | – | active: 14.1 µM
CN(C)c1ccc2c(c1)Sc1cc(N(C)C)ccc1N2C(=O)c1ccccc1 | inactive: -2.38% | –
O=S(=O)(Cc1ccccc1Cl)Nc1ccccn1 | – | inconclusive: 28.2 µM [inhibitor, partial curve]
Cc1ccc(NC(=O)c2ccc(CNc3c(N4CCC(C)CC4)c(=O)c3=O)cc2)cc1 | inactive: -4.27% | –
CCC(CC)C1C(C#N)=C(N)Oc2n[nH]c(-c3ccccc3)c21 (configuration not stated) | – | inconclusive: 20 µM [inhibitor, single point]
Cc1cc(C)nc(N2CCC(C(=O)N3CCN(c4cc(Cl)ccc4C)CC3)CC2)n1 | – | inconclusive: 39.8 µM [inhibitor, single point]

SMILES | activity change, negative = inhibition | Potency
Cc1ccc(NC(=O)CN2C(=O)/C(=C3\SC(=S)N(C4CCS(=O)(=O)C4)C3=O)c3ccccc32)cc1 (configuration not stated) | inactive: 3.12% | –
CCOc1nc(-c2ccc(C)cc2)ccc1-c1noc(-c2cccnc2)n1 | – | active: 4.47 µM
CCOC(=O)c1oc2ccc(S(=O)(=O)n3nc(-c4ccccc4)cc3N)cc2c1C | inactive: -4.61% | –
CCOC(=O)CSc1nc2cc(OCC)ccc2cc1C#N | – | inconclusive: 28.2 µM [inhibitor, partial curve]
CCOCCCNC(=O)C(NC(=O)c1ccc2c(c1)OCO2)c1ccccc1 (configuration not stated) | – | inconclusive: 39.8 µM [inhibitor, single point]
CCc1ccc(-c2cc(-c3n[nH]c(=S)n3CC)c3ccccc3n2)cc1 | – | inconclusive: 31.6 µM [inhibitor, partial curve]
COc1cccc(C(=O)N(Cc2cc3cc(C)ccc3[nH]c2=O)C(C)C)c1 | – | inconclusive: 28.2 µM [inhibitor, partial curve]
Cc1cc(N2CCN(c3ccccc3)CC2)n2ncnc2n1 | inactive: 2.49% | –
Cc1ccc2[nH]c(=O)c(C(c3nnnn3Cc3ccccc3)N3CCc4ccccc43)cc2c1 (configuration not stated) | – | inconclusive: 28.2 µM [inhibitor, partial curve]
COC(=O)c1cccc(NC(=O)c2ccco2)c1 | inactive: -2.38% | –
CC1=NN(c2ccccc2)C(=O)/C1=C/N(C)C | – | inconclusive: 25.1 µM [inhibitor, single point]
Nc1ccccc1-c1n[nH]c(=S)s1 | – | inconclusive: 31.6 µM [inhibitor, partial curve]
CN(C)S(=O)(=O)c1cccc(C(=O)Nc2cc(Cl)cc(Cl)c2)c1 | inactive: -7.79% | –
Cc1csc(SCC(=O)Nc2cc(S(=O)(=O)N3CCCC3)ccc2Cl)n1 | inactive: -4.72% | –
CSc1c(C#N)c(N)c(C#N)c2c1COC(C)(C)C2 | – | inconclusive: 28.2 µM [inhibitor, partial curve]
Cn1ncnc1SCc1cn2cccnc2n1 | – | inconclusive: 28.2 µM [inhibitor, partial curve]
O=c1cc(-c2cccc(O)c2)oc2c(O)c(O)ccc12 | – | active: 7.94 µM
COc1ccccc1C(=O)/C=C/c1ccc(N2CCCCC2)c([N+](=O)[O-])c1 | inactive: 10.2% | –
CCCCNS(=O)(=O)c1ccc2nc(-c3cccnc3)cc(C(=O)NCCCOCC)c2c1 | inactive: 0.322% | –
CCOc1cc(C(=O)Nc2ccon2)cc(OCC)c1OCC | – | inconclusive: 35.5 µM [inhibitor, single point]
O=C(Nc1c(C(=O)C2CC2)oc2ccccc12)c1ccc(Cl)cc1 | – | inconclusive: 25.1 µM [inhibitor, partial curve]
C[C@H]1c2cccc(O)c2C(O)=C2C(=O)[C@]3(O)C(O)=C(C(N)=O)C(=O)[C@@H](N(C)C)[C@@H]3[C@@H](O)[C@@H]21 | – | active: 20 µM
CCc1cc2c(NCC3CCCO3)ncnc2s1 (configuration not stated) | – | inconclusive: 39.8 µM [inhibitor, single point]
